The record followed here is PubChem BioAssay AID488969 (Vanderbilt High Throughput Screening Facility, 2010).

The full ranking holds about 110,000 compounds; the median of “z-score” is about -0.1, and the highest 2% start at about 2. The list shows a part of the results.

This test has as its target Metabotropic glutamate receptor 8 (Rattus norvegicus) (UniProt P70579). Description: rat mGluR8 modulators via GIRK flux, primary screen, cell-based, thallium flux, HTS (AID 488969). The conditions noted are these: HEK293 rat mGluR8, GIRK (G protein-gated inwardly rectifying potassium channel) thallium flux, FluoZin2; at 10 µM; stronger effect = higher value; submaximal glutamate (EC20) added with thallium.
Sequence of UniProt P70579 (P70579 whole entry, looked up): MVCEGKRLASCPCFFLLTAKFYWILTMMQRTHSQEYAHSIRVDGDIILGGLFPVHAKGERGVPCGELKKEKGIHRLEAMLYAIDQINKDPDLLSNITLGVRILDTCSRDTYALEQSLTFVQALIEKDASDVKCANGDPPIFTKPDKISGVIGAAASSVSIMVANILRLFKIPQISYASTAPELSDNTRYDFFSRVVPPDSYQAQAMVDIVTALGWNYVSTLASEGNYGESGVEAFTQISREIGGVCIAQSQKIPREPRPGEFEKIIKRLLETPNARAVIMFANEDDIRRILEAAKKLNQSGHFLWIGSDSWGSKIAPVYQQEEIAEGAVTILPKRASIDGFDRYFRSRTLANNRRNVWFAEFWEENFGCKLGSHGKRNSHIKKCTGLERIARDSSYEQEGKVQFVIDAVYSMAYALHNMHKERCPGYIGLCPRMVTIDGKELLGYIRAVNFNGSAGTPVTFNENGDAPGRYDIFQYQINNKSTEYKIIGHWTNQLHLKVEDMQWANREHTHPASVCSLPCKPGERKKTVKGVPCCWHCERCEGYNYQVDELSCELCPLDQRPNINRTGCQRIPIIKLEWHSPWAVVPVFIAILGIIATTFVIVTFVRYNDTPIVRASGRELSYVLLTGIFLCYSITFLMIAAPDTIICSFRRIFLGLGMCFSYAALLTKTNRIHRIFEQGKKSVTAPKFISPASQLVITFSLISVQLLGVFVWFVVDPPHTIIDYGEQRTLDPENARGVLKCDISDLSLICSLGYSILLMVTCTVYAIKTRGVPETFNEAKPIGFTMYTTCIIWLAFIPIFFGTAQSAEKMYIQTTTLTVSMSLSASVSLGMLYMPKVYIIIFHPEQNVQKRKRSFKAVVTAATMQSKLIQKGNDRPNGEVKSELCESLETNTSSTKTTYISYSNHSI
`CCOC(=O)c1[nH]c2ccccc2c1NC(=O)NC1CCCCC1` had a z-score of -0.294.

Turning to `O=C(NCCCn1ccnc1)c1ccccc1NS(=O)(=O)c1ccc(F)c(F)c1`, the z-score was -0.249.

`CCOC(=O)/C(C#N)=C\c1c(C)cc(C)c(COC(C)=O)c1C` showed a z-score of -0.12.

On to `Cc1cccc(N2CCN(C(=O)C34CC5CC(CC(C5)C3)C4)CC2)c1C`, for which the z-score stood at 0.335.

Compound `CCN(CC(=O)NCc1ccccn1)S(=O)(=O)c1ccc(Cl)cc1` returned a z-score of 0.0295.

`CC(C)(C)NC(NC(=O)Cc1ccccc1)C(Cl)(Cl)Cl` (stereo not drawn) yielded a z-score of -0.194.

In turn, `CCCCCC(=O)NC(=S)Nc1ccccc1C(=O)OC` returned a z-score of 0.197.

Regarding `CCCC(=O)Nc1nnc(CC(=O)N2CCCC2)s1`, the z-score is -0.177.

In turn, `CCOC(=O)C1CCCN(C(=O)c2sc3nc(-c4ccc(F)cc4)cn3c2C)C1` (stereo not drawn) registered a z-score of 0.112.

`CCOC(=O)N1CCC(NC(=O)c2cccn3c(=O)c4cc(Br)ccc4nc23)CC1` came in with a z-score of -1.28.

The compound `Cc1cc(C)cc(N(C(C)C(=O)Nc2c(C)n(C)n(-c3ccccc3)c2=O)S(C)(=O)=O)c1` (stereo not drawn) showed a z-score of -0.399.

Turning to `CCCCN(C)Cc1c(C)[nH]c2c(Cl)cccc2c1=O`, the z-score amounted to 0.173.

The compound `COc1ccc(NS(=O)(=O)c2ccc3c(c2)Cc2ccccc2-3)cn1` yielded a z-score of -0.0264.

For `CC1CC(c2ccccc2)n2nc(NC(=O)c3cccs3)nc2N1` (stereo not drawn), the z-score is -0.14.

Regarding `Cc1ccc(S(=O)(=O)NCCCNC(=O)c2ccccc2)cc1`, the z-score worked out at 0.418.

`OC(CN1CCCCC1)CN1CCCCC1` gave a z-score of -0.0343.

Regarding `Oc1ccc(Br)cc1/C=N/n1cnc2ccccc21`, the z-score was 2.45.

Consider `COc1cc(C)nc(SCC(N)=O)n1`, for which the z-score is -0.0477.

As for `O=C(c1ccccc1)c1c[nH]c(C(=O)NCc2cccnc2)c1`, the z-score worked out at 0.181.

Take `COc1ccc(NC(=O)CCN2CCCC2)c(OC)c1`: the z-score was 0.293.

On to `Cc1ccc(CNC(=O)CSc2nc3ccccc3c3nc(C)nn23)cc1`, for which the z-score was -0.228.

For `CCOC(=O)/C(C#N)=C1/C=CNC(=O)N1`, the z-score was -0.0309.

Compound `Cc1cc(C)nc(Nc2ccc(C(=O)O)cc2)n1` registered a z-score of 0.0167.

Turning to `O=C(NNC(=O)c1sccc1-n1cccc1)c1ccccc1`, the z-score was 0.869.

Compound `CC1CCc2sc(C(=O)OCC(=O)NCc3ccc(F)cc3)cc2C1` (stereo not drawn) yielded a z-score of -0.112.

Turning to `COC(=O)C1(C(=O)OC)NOC2C(=O)N(c3ccc(Cl)cc3Cl)C(=O)C21` (stereo not drawn), the z-score was -0.186.

Consider `COCCNC(=O)c1c[nH]n2c(=O)cc(C3CCN(C(=O)OC(C)(C)C)CC3)nc12`, for which the z-score was 0.152.

`Cn1cnnc1SCC(=O)N1CCC(Cc2ccccc2)CC1` gave a z-score of 0.49.

`O=C(NN=C1CCCCCC1)C(=O)Nc1cccc(Br)c1` came in with a z-score of -0.165.

On to `COCC(=O)Nc1ccc(S(=O)(=O)Nc2cc(C)nc(C)n2)cc1`, for which the z-score stood at 0.0181.

`COc1ccc(N2CCN(C(=O)c3ccc(C(C)(C)C)cc3)CC2)cc1`: the z-score was -0.118.

`O=C(Cc1nn[nH]n1)c1ccccc1O`: the z-score was -0.103.

Consider `COCC(=O)N(Cc1cc2cc(OC)ccc2[nH]c1=O)c1ccccc1`, for which the z-score was -0.177.

Compound `Cc1cc(NC(=O)CSc2nnc(-c3ccc4c(c3)OCCO4)o2)no1` returned a z-score of 0.479.

`C1=CC2c3ccccc3NC(c3ccncc3)C2C1` (stereo not drawn) came in with a z-score of -0.14.

As for `CSc1ccccc1NC(=O)CN(C)CC(=O)Nc1ccc(Cl)cc1F`, the z-score was -0.634.

In turn, `CC1=C(C)CC(C(=O)N2CCN(Cc3ccccc3)CC2)C(C(=O)O)C1` (stereo not drawn) registered a z-score of 0.119.

The compound `Cn1c(SCC(=O)NC(=O)c2cccc([N+](=O)[O-])c2)nnc1-c1ccc(F)cc1` yielded a z-score of -0.599.

In the case of `Cc1ccc(Cl)cc1NC(=O)COC(=O)C1CCCCC1`, the z-score is -0.128.

Regarding `Cc1c(NC(=O)CSc2ccc(Cl)cc2)cccc1-c1nc2ncccc2o1`, the z-score was -0.212.

As to `Cc1c(Br)c(C(=O)N2CCc3ccccc32)nn1C`, the z-score is -0.182.

Compound `CC(=O)Nc1sc(NC(=O)c2ccc(C)cc2)nc1-c1cccs1` returned a z-score of 0.14.

`C=CCn1c(SCC(=O)Nc2sccc2C#N)nc2sc(C)c(C)c2c1=O` came in with a z-score of 0.0234.

`Cc1nc(C(=O)Nc2ccc(Cl)cc2)nn1-c1ccc([N+](=O)[O-])cc1` had a z-score of -0.385.

On to `O=C(COC(=O)CNC(=O)c1cccc([N+](=O)[O-])c1)Nc1nc2ccccc2s1`, for which the z-score was -0.159.

Regarding `Cc1noc(C)c1CSCC(=O)N1CCN(c2ccc([N+](=O)[O-])cc2)CC1`, the z-score is -0.325.

`COc1ccccc1OCC(=O)N(Cc1nc(-c2ccccc2)no1)C1CCCCC1` displayed a z-score of -0.721.

In the case of `Cc1cc(C)cc(NS(=O)(=O)c2ccc(NC(=S)NC(=O)c3ccc(Br)o3)cc2)c1`, the z-score was 2.18.

`COc1ccc(C(Nc2ccccn2)c2c(NC(=O)c3ccco3)sc(C)c2C)cc1OC` (stereo not drawn) displayed a z-score of -0.456.

On to `COc1ccccc1NC(=S)NNC(=O)c1nn(C)cc1Cl`, for which the z-score was -0.1.

Take `O=S(=O)(NCc1ccccc1)c1cccc2nonc12`: the z-score came to 0.525.

Compound `O=C(Nc1ccc2c(c1)OCO2)c1ccc[n+]([O-])c1` displayed a z-score of 0.533.

`CCOc1ccc2[nH]c(C)c(CN3CCN(C)CC3)c(=O)c2c1` registered a z-score of -0.0143.

`FC(F)(F)c1cccc(-c2cc3ccccc3nc2N2CCCC2)c1`: the z-score is -0.0554.

Regarding `CC(C)(C)C(=O)NC1=NCCS1`, the z-score is -0.255.

The compound `CCOC(=O)Cc1csc(NC(=O)c2ccc(C)o2)n1` yielded a z-score of 0.312.

`Cc1cccc(NC(=O)CSc2nnc(NC(=O)c3ccc(S(=O)(=O)N4CCOCC4)cc3)s2)c1C` registered a z-score of -0.0933.

As to `O=C(CN1CCN(C(=O)c2ccccc2F)CC1)Nc1ccc(Br)cc1`, the z-score was -0.165.

In turn, `O=C(NCc1ccccc1)C(c1ccco1)N(C(=O)c1cnccn1)c1ccc(F)cc1` (stereo not drawn) had a z-score of 0.0702.

The compound `CC(=O)c1cc(-c2ccccc2)n(CC(=O)N2CCC(C)CC2)c1C` registered a z-score of -0.584.

In turn, `Cc1ccccc1NS(=O)(=O)c1cc(C(=O)NCCC2=CCCCC2)ccc1Cl` had a z-score of -0.132.

In turn, `CCNC(=S)N(Cc1cccs1)Cc1cc2cc(OCC)ccc2[nH]c1=O` returned a z-score of -0.109.

For the compound `Cc1ccc(C(=O)NC(=S)Nc2ccccc2C(F)(F)F)c(C)c1`, the z-score amounted to 0.996.

Turning to `CCC(=O)Nc1nnc(C)s1`, the z-score stood at 0.946.

Regarding `COc1ccc(C)cc1NC(=O)COC(C)=O`, the z-score was -0.279.

As to `COc1cc(/C=C/C(=O)N2CCCc3ccccc32)cc(OC)c1OC`, the z-score stood at 0.519.

For `CCC1(C)Cc2ccccc2-c2c1c(=O)n(-c1ccc(C)cc1)c1nnnn21` (stereo not drawn), the z-score was determined as 0.136.

As to `CC(CCCC(C)(C)O)NCCO` (stereo not drawn), the z-score is -0.0612.

Turning to `Cc1cccc(N(C(=O)Nc2ccccc2)C2=NCC(C)S2)c1` (stereo not drawn), the z-score was -0.144.

As for `O=C(Cc1ccccc1)Nn1c(-c2ccccc2)nc2ccccc2c1=O`, the z-score was determined as 0.516.

Regarding `COC(=O)c1cc(-c2ccc(OC)c(OC)c2)n[nH]1`, the z-score was -0.482.

In turn, `Cc1ccc(-n2c(N)c(C(N)=O)sc2=S)c(C)c1` came in with a z-score of -0.252.

`CC(C)CC(=O)NC(=S)NNC(=O)c1ccc([N+](=O)[O-])cc1`: the z-score came to 0.187.
